Data on 57 compounds can be found in PMC4336329 (PLoS ONE, 2015).

The whole screen tested about 310,000 compounds, of which about 14,000 (4.5%) showed an effect of 50% or more. The effect is printed as a negative number. The list shows a part of the results.
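Also: peak tail current of the secondary pulse compared with the same well before compound.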

The target in this assay is human ether-à-go-go-related gene (hERG) potassium channel (human, UniProt Q12809). Nature of the assay: primary screen, population patch clamp on CHO cells stably expressing hERG.
Sequence of human ether-à-go-go-related gene (hERG) potassium channel (Q12809 whole entry, looked up): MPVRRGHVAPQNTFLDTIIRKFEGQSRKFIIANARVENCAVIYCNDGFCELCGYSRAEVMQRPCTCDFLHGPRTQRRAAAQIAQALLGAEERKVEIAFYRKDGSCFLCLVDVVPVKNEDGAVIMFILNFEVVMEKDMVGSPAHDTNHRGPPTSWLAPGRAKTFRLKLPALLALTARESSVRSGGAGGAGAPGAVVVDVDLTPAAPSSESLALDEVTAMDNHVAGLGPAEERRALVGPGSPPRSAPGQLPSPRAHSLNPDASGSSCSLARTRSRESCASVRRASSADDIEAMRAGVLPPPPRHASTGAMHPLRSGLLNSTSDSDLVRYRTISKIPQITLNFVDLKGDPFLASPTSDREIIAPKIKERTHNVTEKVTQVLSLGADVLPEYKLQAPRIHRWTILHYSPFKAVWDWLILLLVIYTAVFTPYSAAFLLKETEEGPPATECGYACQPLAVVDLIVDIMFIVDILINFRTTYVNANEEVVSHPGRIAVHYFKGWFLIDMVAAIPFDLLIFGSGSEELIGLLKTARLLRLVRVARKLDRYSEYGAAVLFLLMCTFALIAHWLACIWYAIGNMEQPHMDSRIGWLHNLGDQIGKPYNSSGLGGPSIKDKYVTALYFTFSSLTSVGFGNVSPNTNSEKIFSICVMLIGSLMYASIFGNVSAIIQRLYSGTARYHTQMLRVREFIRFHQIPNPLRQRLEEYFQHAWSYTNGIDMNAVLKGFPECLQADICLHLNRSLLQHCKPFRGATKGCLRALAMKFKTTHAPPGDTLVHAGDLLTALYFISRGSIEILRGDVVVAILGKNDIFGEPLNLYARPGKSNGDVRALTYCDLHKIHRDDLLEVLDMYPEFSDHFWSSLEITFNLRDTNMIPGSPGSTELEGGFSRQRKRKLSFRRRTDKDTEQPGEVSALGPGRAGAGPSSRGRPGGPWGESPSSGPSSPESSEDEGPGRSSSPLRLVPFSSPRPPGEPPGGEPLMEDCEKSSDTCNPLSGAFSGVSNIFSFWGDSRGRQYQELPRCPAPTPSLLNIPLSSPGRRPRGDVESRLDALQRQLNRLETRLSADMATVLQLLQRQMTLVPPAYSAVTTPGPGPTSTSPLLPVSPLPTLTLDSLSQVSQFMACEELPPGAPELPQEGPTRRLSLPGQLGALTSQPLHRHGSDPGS
Consider `C/C(=N\NC(=O)COc1cc(C)cc(C)c1)c1ccc(N2CCOCC2)cc1`, for which the “hERG current change (%, negative = inhibition) at 10uM” value was 4.74%. The same measure for `COc1cc2c(cc1OC)[C@@H]1Cc3cc4c(cc3[C@H](C2)N1C)OCO4.Cl`: -9.39%; for `CS(=O)(=O)N(CC(=O)N1CCOCC1)c1ccc2c(c1)OCO2`: 18.7%; for `CC(C)N1C(=O)c2ccccc2C1C(=O)NC1CCCCCC1` (stereo not drawn): 9.81%. For `COc1ccc(OC)c(NS(=O)(=O)c2cccc3cccnc23)c1`, the “hERG current change (%, negative = inhibition) at 10uM” value turned out to be 20.7%. The same measure for `COC(=O)N/N=C/c1ccc(-c2cc(Cl)ccc2Cl)o1`: -11.2%; for `Cc1ccccc1-n1c(SCC(=O)NCc2cccs2)nnc1-c1ccncc1`: -33.5%. On to `Cc1c(Nc2nc(-c3cccc([N+](=O)[O-])c3)cs2)c(=O)n(-c2ccccc2)n1C`, for which the “hERG current change (%, negative = inhibition) at 10uM” value was -18%. The same measure for `Cc1ccc(C(=O)N2CCCC(N3CCN(c4ccccc4F)CC3)C2)s1` (stereo not drawn): -18.3%. To `COc1ccc(OCc2cc(C(=O)N(C)C3CCOC3)no2)c(Cl)c1` (stereo not drawn) belongs -8.91%. The same measure for `CC(C)CC(C(=O)NC(C)(C)C)N(CC1CCCO1)C(=O)c1snc(C(N)=O)c1N` (stereo not drawn): -0.137%. `Cc1ccc(NC(=S)N(C)N)cc1Cl`: the “hERG current change (%, negative = inhibition) at 10uM” value came to 16.8%.

Turning to `Cc1noc(C)c1COc1ccc(C(=O)OCC(=O)N2c3ccccc3NC(=O)C2(C)C)cc1`, the “hERG current change (%, negative = inhibition) at 10uM” value came out at 2.47%.

Take `O=C(NCc1nnc(SCC(=O)N2CCc3ccccc32)o1)c1ccco1`: the “hERG current change (%, negative = inhibition) at 10uM” value is reported as 8.27%.

Turning to `COc1ccc(C(=O)O/N=C2\CCCc3nonc32)cc1`, the “hERG current change (%, negative = inhibition) at 10uM” value is on record as 37.3%.

Regarding `CCOC(=O)C1=C(CS(=O)(=O)c2ccc(C)cc2)NC(=O)NC1c1cc(OC)c(O)c(OC)c1` (stereo not drawn), the “hERG current change (%, negative = inhibition) at 10uM” value was determined as 9.12%. The same measure for `O=C1C2CC=CCC2C(=O)N1c1n[nH]c(Cc2ccccc2)n1` (stereo not drawn): 2.31%. Take `Cc1ccc(NC(=O)C/C(N)=N/OC(=O)Nc2cccc(C)c2)cc1`: the “hERG current change (%, negative = inhibition) at 10uM” value is listed as -23.2%. In the case of `CCCCN(CC)S(=O)(=O)c1ccc(C(=O)Nc2nnc(-c3cccs3)o2)cc1`, the “hERG current change (%, negative = inhibition) at 10uM” value is recorded as -8.71%. Take `O=C1/C(=C/N(C(=O)c2ccco2)c2ccc(Cl)cc2)Sc2ccccc21`: the “hERG current change (%, negative = inhibition) at 10uM” value was -1.02%.

For `CCOC(=O)C1CCN(C(=O)c2ccccc2Oc2ccccc2)CC1`, the “hERG current change (%, negative = inhibition) at 10uM” value is listed as -16%. The same measure for `O=C(NCc1ccc2c(c1)OCO2)c1ccc(S(=O)(=O)N2CCCCC2)cc1`: -16.8%; for `O=C(COC(=O)c1ccc(O)cc1)Nc1ccc2[nH]c(=O)[nH]c2c1`: 2.48%. The same measure for `CNC1=CC(=O)CC(c2ccccc2)C1` (stereo not drawn): -1.58%; for `CCOC(=O)/C(=C/Nc1ccc(F)c(F)c1)[N+](=O)[O-]`: 16.1%.

In the case of `CCOc1ccc(/C=N/NC(=O)c2cc3c(OC)cc(OC)c(OC)c3[nH]2)cc1`, the “hERG current change (%, negative = inhibition) at 10uM” value is -16.5%.

`COCCNC(=O)Cc1ccc(Br)cc1`: the “hERG current change (%, negative = inhibition) at 10uM” value stood at 15%. To `COCCCn1nnnc1SCC(=O)N1CCCC1` belongs 1.47%.

Regarding `Cc1ccc2nc(N3CCOCC3)c(C=O)c(=O)n2c1`, the “hERG current change (%, negative = inhibition) at 10uM” value was 10.5%. The same measure for `CCOc1ccc(/C=N/NC(N)=S)cc1`: 11.6%; for `CCN(CC)S(=O)(=O)c1cccc(-c2nnc(SCc3nnc(-c4ccccc4)o3)n2C)c1`: -67.4%. To `CCOc1ccccc1NC(=O)Cn1[nH]c(=O)c2ccccc2c1=O` belongs 16.3%; to `N=c1sc2ccccc2n1-c1ccccc1`, -27.1%; to `O=C(NCCC1=CCCCC1)C1CCN(S(=O)(=O)c2ccc(Br)s2)CC1`, 3.57%. To `Cc1cccc(NC(=O)CNC(=O)CN2CCN(C)CC2)c1C` belongs 7.6%.

`O=S(=O)(c1ccsc1)N1CC=C(c2ccccc2)CC1`: the “hERG current change (%, negative = inhibition) at 10uM” value worked out at 15.7%. The same measure for `COCC(=O)NNC(=O)c1ccccc1OC`: 15.4%; for `CSc1ncccc1C(=O)Nc1cccc(S(=O)(=O)N2CCCCC2)c1`: -64.3%; for `N#CC(Sc1ccccn1)c1ccc(Cl)cc1Cl` (stereo not drawn): 4.76%.

Consider `CCn1c(O)c(N=Nc2ccc(Cl)c(C(=O)O)c2)c2ccccc21`, for which the “hERG current change (%, negative = inhibition) at 10uM” value turned out to be 12.7%. To `Cn1cc(C(=O)N2CCCCC2)c2ccccc21` belongs 4.66%; to `COc1ccc(NC(=O)CN(C)C(=O)C2CSC3(C)CCC(=O)N23)cc1` (stereo not drawn), 2.27%.

As to `CS(=O)(=O)c1ccc(Cl)c(NC(=O)CSc2nc3ccccc3c(=O)n2Cc2ccco2)c1`, the “hERG current change (%, negative = inhibition) at 10uM” value is given as -32.7%.

Take `Cc1cccc(C)c1NC(=O)CN(C)CC(=O)Nc1ccccc1Br`: the “hERG current change (%, negative = inhibition) at 10uM” value was -3.22%. To `Cc1ccc(NC(=S)Nc2ccc(S(=O)(=O)N3CCOCC3)cc2)cc1S(=O)(=O)N1CCOCC1` belongs 0.293%.

Take `O=C(CN1C(=O)C2C3C=CC(C4CC34)C2C1=O)Nc1cnc2ccccc2c1` (stereo not drawn): the “hERG current change (%, negative = inhibition) at 10uM” value was -3.67%. The same measure for `COc1cccc(/C=N/NC(=S)NC2CC3CC2C2C=CCC32)c1O` (stereo not drawn): 12.5%; for `COc1ccc2c(c1)-c1nc(/N=C/c3ccc(O)cc3)sc1CC2`: -0.142%. The same measure for `Cc1ccc(-n2cc(CN3CCC(CO)(Cc4ccccc4)CC3)cn2)cc1`: -65.1%.

Consider `Cc1c(NC(=O)c2cc(-c3ccc(Cl)c(Cl)c3)on2)c(=O)n(-c2ccccc2)n1C`, for which the “hERG current change (%, negative = inhibition) at 10uM” value is listed as -40.2%. The same measure for `O=C(c1ccco1)N1CCN(Cc2nnnn2C2CCCCC2)CC1`: 3.3%. Consider `CC(=O)Nc1ccc(NC(=O)CSc2nnc(-c3cccs3)n2C)cc1`, for which the “hERG current change (%, negative = inhibition) at 10uM” value is given as -7.69%. To `COc1ccc(C2C(C(=O)N3CCOCC3)=C(C)NC3=C2C(=O)CC(C)(C)C3)c(OC)c1` (stereo not drawn) belongs -3.42%; to `COc1ccc(C(=O)NC(C)c2cnn(-c3ccccn3)c2C)o1` (stereo not drawn), -11.7%. The same measure for `O=C(N/N=C\c1ccccn1)c1ccccc1O`: 11%; for `COc1ccc2nc(SCc3cnc(C)nc3N)[nH]c2c1`: -4.7%; for `c1ccc2[nH]c(CCCc3nc4ccccc4[nH]3)nc2c1`: -7.32%.
